# From PubChem BioAssay AID1460 (National Center for Advancing Translational Sciences (NCATS), 2008)
# Hit rate of the full screen: of about 270,000 compounds, about 5,800 (2.1%) were called active. The inconclusive results got no clear call from the source; some entries with a clear call stand among them for comparison. Calls come from the whole dose curve; as a rule, active = well fitted inhibition curve with a large enough effect; inconclusive = small, poorly fitted or top-dose-only effect; inactive = flat fitted curve, though single readings scatter. Potencies of inconclusive entries are doubtful fits and often do not repeat.
# Target: Microtubule-associated protein tau (Homo sapiens) (UniProt P10636)
# UniProt P10636, sequence (P10636 whole entry, looked up): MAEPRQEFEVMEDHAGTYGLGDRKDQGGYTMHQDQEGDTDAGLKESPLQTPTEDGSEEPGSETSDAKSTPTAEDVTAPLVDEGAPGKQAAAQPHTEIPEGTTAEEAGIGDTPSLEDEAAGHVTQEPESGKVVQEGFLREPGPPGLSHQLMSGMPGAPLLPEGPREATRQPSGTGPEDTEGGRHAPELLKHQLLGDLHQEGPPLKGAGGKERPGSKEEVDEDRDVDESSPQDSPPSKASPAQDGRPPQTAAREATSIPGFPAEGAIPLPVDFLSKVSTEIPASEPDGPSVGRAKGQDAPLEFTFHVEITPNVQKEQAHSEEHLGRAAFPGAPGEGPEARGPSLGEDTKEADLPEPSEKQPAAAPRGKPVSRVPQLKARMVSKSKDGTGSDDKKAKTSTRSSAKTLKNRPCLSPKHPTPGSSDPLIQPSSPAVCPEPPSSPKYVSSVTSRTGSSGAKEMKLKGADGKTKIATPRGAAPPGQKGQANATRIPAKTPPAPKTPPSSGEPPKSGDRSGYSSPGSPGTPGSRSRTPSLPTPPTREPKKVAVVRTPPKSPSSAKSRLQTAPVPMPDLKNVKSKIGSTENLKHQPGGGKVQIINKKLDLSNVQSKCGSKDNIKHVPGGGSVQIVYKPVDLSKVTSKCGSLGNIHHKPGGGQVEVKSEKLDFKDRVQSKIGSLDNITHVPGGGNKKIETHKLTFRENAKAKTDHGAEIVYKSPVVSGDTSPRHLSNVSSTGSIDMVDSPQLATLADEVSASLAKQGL
# Test: qHTS for Inhibitors of Tau Fibril Formation, Thioflavin T Binding; note: nearly all actives have a fitted effect of over 55% in size
# Conditions: recombinant tau K18 P301L (four-repeat tau fragment), heparin-induced fibrillization, ThT fluorescence; series mostly up to 57.4 µM; activity, negative = inhibition: at the top concentration
# How it was run: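 Heparin-induced fibrillization of the P301L-mutant K18 repeat-domain fragment of human tau was followed by ThT binding in quantitative high-throughput format.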
# % is set by controls: 0 for no effect and ±100 for the full control effect; potency is the fitted concentration of half-maximal effect; tags give direction and shape of the fitted curve.
SMILES,"activity, negative = inhibition",Potency
O=C(COC(=O)CC12CC3CC(CC(C3)C1)C2)Nc1cccnc1Cl,inactive: -7.84%,
O=C(NC1CC1)C1=C[C@@H](c2c[nH]c3ccccc23)C[C@@H](OCCCCO)O1,inactive: -13.3%,
CCN(CC)C(=O)CSc1nc(N)c(C(=O)Nc2ccc(OC)cc2)s1,inactive: -5.26%,
O=c1oc2ccc3ccccc3c2cc1-c1nnc(Nc2ccc(F)cc2)s1,,"inconclusive: 1.78 µM [inhibitor, full curve]"
CC(=O)Nc1c([N+](=O)[O-])cc2[nH]c(=O)[nH]c2c1[N+](=O)[O-],,"inconclusive: 28.2 µM [inhibitor, partial curve, poor fit]"
Cc1ccc(N2CC(C)Cn3c2nc2c3c(=O)n(Cc3cccc(Cl)c3)c(=O)n2C)cc1 (stereo not given),inactive: -3.34%,
O=C1S/C(=C/c2ccc(N3CCOCC3)o2)C(=O)N1Cc1ccc(F)cc1,,"inconclusive: 12.6 µM [inhibitor, partial curve]"
O=C(CSc1ncnc2c1cnn2CCc1ccccc1)Nc1cccc(C(F)(F)F)c1,,"inconclusive: 28.2 µM [inhibitor, partial curve, poor fit]"
Cc1ccc2c(c1)NCC(C(=O)NC1CCCCC1)O2 (stereo not given),inactive: -13.7%,
c1csc(CNc2ncncc2-c2ccc3c(c2)OCO3)c1,inactive: 9.39%,
NS(=O)(=O)c1ccc(NC(=S)N2CCN(c3cccc(Cl)c3)CC2)cc1,,"inconclusive: 31.6 µM [inhibitor, single point]"
Cc1ccc(CN2CCN(CC(=O)N=Nc3c(O)[nH]c4ccccc34)CC2)cc1,,"inconclusive: 31.6 µM [inhibitor, single point]"
CCN(CC)c1ccc(NC(=O)c2cc3ccccc3o2)c(C)c1,,"inconclusive: 3.55 µM [inhibitor, full curve]"
COc1ccc(/C(N)=N/OC(=O)Cc2ccc(C)cc2)cc1,inactive: -11.3%,
CCc1ccc(NC(=O)COC(=O)C2(c3ccc(Cl)cc3)CCCC2)cc1,,"inconclusive: 10 µM [inhibitor, partial curve]"
NNC(=O)CNC(=O)CNS(=O)(=O)c1ccccc1,inactive: -0.098%,
COc1ccc(-c2nnc(NC(=O)c3ccccc3C)o2)cc1,inactive: -4.77%,
CCOC(=O)C1(CCOc2ccccc2)CCN(Cc2ccc3nonc3c2)CC1,inactive: 2.91%,
COc1cc(C2C(=O)N(C3CCCCCC3)CC(=O)N2CCc2ccccc2)ccc1OC(C)C (stereo not given),inactive: -9.3%,
Cc1ccc2c(c1)/C(=N/O)CCS2,inactive: -7.96%,
Cc1ccc(OCCn2c(=S)[nH]c3c(N)ncnc32)cc1,inactive: -8.95%,
COc1ccccc1CNC(=O)CSCc1cnn(-c2ccccc2)c1-n1cccc1,,"inconclusive: 17.8 µM [inhibitor, single point]"
Nc1ccccc1Nc1cc(-c2ccccc2)[nH]n1,,active: 14.1 µM
C/C(=N\NC(=O)c1ccncc1)c1cc2ccccc2oc1=O,,"inconclusive: 39.8 µM [inhibitor, single point]"

SMILES,"activity, negative = inhibition",Potency
Cc1ccc2nc(CCc3nc4ccc(C)cc4o3)oc2c1,,"inconclusive: 1.26 µM [inhibitor, full curve]"
CCOc1cc(/C=N/NC(=O)c2ccncc2)ccc1OC(=O)c1ccc([N+](=O)[O-])cc1,,"inconclusive: 12.6 µM [inhibitor, partial curve]"
Oc1ccc(/C=N/n2cc(-c3ccccc3)[nH]c2=S)cc1,,active: 10 µM
Cc1noc(C)c1CSCC(=O)OCC(=O)Nc1sccc1C#N,inactive: -6.1%,
O=C(CSc1nnc(CNc2ccccc2)o1)c1ccc2c(c1)OCCO2,,"inconclusive: 31.6 µM [inhibitor, partial curve]"
Cc1ccc(Cl)cc1N1CCN(CCCNC(=O)c2ccc3nc(N4CCCCC4)sc3c2)CC1,,"inconclusive: 20 µM [inhibitor, partial curve]"
COCCCNC(=S)N1CCN(c2ccc([N+](=O)[O-])cc2)CC1,,"inconclusive: 3.98 µM [inhibitor, partial curve]"
CCn1c2ccccc2c2cc(NC(=O)c3ccc(Br)o3)ccc21,,active: 12.6 µM
S=C(NN=C1C2CC3CC(C2)CC1C3)Nc1ccccc1,,"inconclusive: 28.2 µM [inhibitor, single point]"
CN1CCN(CCCNC(=O)c2ccc(/C=C3\Sc4ccccc4N(Cc4ccc(F)cc4)C3=O)cc2)CC1,,"inconclusive: 39.8 µM [inhibitor, single point]"
COc1cccc(C(C2=C(O)CC(C)(C)CC2=O)C2C(=O)CC(C)(C)CC2=O)c1 (stereo not given),,"inconclusive: 7.08 µM [inhibitor, full curve, poor fit]"
CC1(C(=O)Nc2cccc3ccccc23)CC1(Br)Br (stereo not given),,"inconclusive: 17.8 µM [inhibitor, partial curve]"
COc1ccc(Nc2c3c(nc4ccc(NC(=O)c5ccc(F)cc5)cc24)CCCC3)cc1OC,,active: 15.8 µM
Clc1ccc(CO/N=C/c2c(-c3ccccc3)nc3n2CCS3)c(Cl)c1,,"inconclusive: 39.8 µM [inhibitor, single point]"
CC(=O)Nc1ccc(NC(=O)c2ccc3c(c2)N(Cc2cccc(Cl)c2)C(=O)c2ccccc2S3(=O)=O)cc1,inactive: -10.7%,
Fc1ccc(-n2c(-c3ccc4c(c3)OCO4)n[nH]c2=S)cc1Cl,inactive: -5.5%,
Cc1ccc(C(=S)N2CCN(Cc3ccccc3)CC2)s1,,"inconclusive: 11.2 µM [inhibitor, partial curve]"
CCOC(=O)C1=C(C)OC(N)=C(C#N)C1c1cc2ccccc2nc1N1CCCCC1 (stereo not given),,"inconclusive: 28.2 µM [inhibitor, partial curve]"
Cc1cc(N)c(NC2=CC(=O)CC(C)(C)C2)cc1C,,"inconclusive: 0.794 µM [inhibitor, full curve]"
COc1ccc(NS(=O)(=O)c2ccc3[nH]c4c(c3c2)CCCC4)cc1OC,,"inconclusive: 20 µM [inhibitor, single point]"
Cn1c(=O)c2[nH]c(CN(Cc3ccccc3)Cc3ccccc3)nc2n(C)c1=O,inactive: 7.13%,
Cc1ccccc1NC(=S)Nc1ccc2[nH]c(=O)[nH]c2c1,,"inconclusive: 22.4 µM [inhibitor, single point]"
COC(=O)c1ccccc1NC(=O)C1CC(=O)N(c2ccc(F)cc2)C1 (stereo not given),inactive: -4.49%,
N#CCCN1CCN(C(=S)c2ccc(-c3cc(Cl)ccc3Cl)o2)CC1,,"inconclusive: 11.2 µM [inhibitor, partial curve]"

SMILES,"activity, negative = inhibition",Potency
O=C(NCCOC12CC3CC(CC(C3)C1)C2)c1cccc(Br)c1,inactive: -14.7%,
COc1ccc(/C=C/c2nnc(NC(=O)COc3cccc(C)c3)s2)cc1,,"inconclusive: 0.708 µM [inhibitor, full curve]"
N#CCCN1CCN(C2=NC(=O)C(=C3CCCCC3)S2)CC1,inactive: -6.53%,
COc1ccc(N2CCN(C(CNC(=O)C(=O)NCc3cccs3)c3ccco3)CC2)cc1 (stereo not given),,"inconclusive: 7.94 µM [inhibitor, partial curve, poor fit]"
CCc1ccccc1NC(=O)N1CCN(c2cc(-c3noc(C)n3)ccc2C)CC1,inactive: -7.62%,
O=C(Nc1ccc(N2CCOCC2)cc1)c1cccc(S(=O)(=O)N2CCCCC2)c1,,"inconclusive: 14.1 µM [inhibitor, partial curve, poor fit]"
CC(=O)Nc1ccc(/C=N/Nc2nc3ccccc3[nH]2)cc1,,"inconclusive: 2.82 µM [inhibitor, partial curve]"
O=[N+]([O-])c1cc(O)c2ncccc2c1,,"inconclusive: 11.2 µM [inhibitor, partial curve]"
O=C(Nc1cccc(Cl)c1Cl)c1ccc2c(c1)N(Cc1cccc(Cl)c1)C(=O)c1ccccc1S2(=O)=O,inactive: -14.8%,
COc1ccc2oc(=O)c(C(=O)NCCc3c(C)[nH]c4c(Cl)cccc34)cc2c1,,"inconclusive: 2.82 µM [inhibitor, full curve]"
COc1ccccc1/C=C1\SC(=S)N(N2C(=O)CCCC2=O)C1=O,,"inconclusive: 12.6 µM [inhibitor, partial curve]"
CCCCn1c(NS(=O)(=O)c2ccc(C)cc2)c(S(=O)(=O)c2ccccc2)c2nc3ccccc3nc21,,"inconclusive: 15.8 µM [inhibitor, partial curve]"
Cc1ccc2c(=O)[nH]c(Nc3nc(C)cc(-c4ccccc4)n3)nc2c1,,"inconclusive: 5.62 µM [inhibitor, partial curve]"
CCOC(=O)N1CCN(C(=O)CCCOc2ccccc2)CC1,,"inconclusive: 3.55 µM [inhibitor, partial curve]"
Cc1ccc(NC(=O)c2cnc(SCC(=O)N3CCOCC3)n(C)c2=O)cc1,,"inconclusive: 15.8 µM [inhibitor, partial curve]"
C[C@@H]1C(c2ccccc2)=NN(c2ccc(Br)cc2)[C@H]1C(=O)N1CCOC1=O,,"inconclusive: 14.1 µM [inhibitor, partial curve, poor fit]"
CCC1CN(C(=O)N2CCC(C(=O)NCCN(C)C)CC2)c2ccccc2O1 (stereo not given),inactive: -2.14%,
O=C(NC(=S)Nc1cccc(Cl)c1N1CCCC1)c1ccc(-c2cccc([N+](=O)[O-])c2)o1,,"inconclusive: 15.8 µM [inhibitor, partial curve]"
Cc1ccc(COc2ccc(Br)cc2/C=N/O)cc1,,"inconclusive: 15.8 µM [inhibitor, partial curve]"
N=c1c2c(ncn1CCN1CCOCC1)Oc1ccc3ccccc3c1C2c1ccccc1 (stereo not given),,"inconclusive: 4.47 µM [inhibitor, full curve, poor fit]"
CCn1c(N2CCN(CC(=O)c3c[nH]c4ccccc34)CC2)nc2c1c(=O)[nH]c(=O)n2C,inactive: -12.1%,
COc1ccccc1Nc1nn2c(=O)c3ccc(C(=O)NCCCOC(C)C)cc3nc2s1,,"inconclusive: 0.126 µM [inhibitor, full curve, poor fit]"
